# In PubChem BioAssay AID488969 (Vanderbilt High Throughput Screening Facility, 2010):
# The full ranking holds about 110,000 compounds; the median of “z-score” is about -0.1, and the highest 2% start at about 2. The list shows a part of the results. Active and inactive are the calls of the source.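 The calls were made as follows: active = z-score in the third read window above 3 or below -3; inactive = the rest.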
# Target: Metabotropic glutamate receptor 8 (Rattus norvegicus) (UniProt P70579)
# Experiment: rat mGluR8 modulators via GIRK flux, primary screen, cell-based, thallium flux, HTS (AID 488969)
# Details: HEK293 rat mGluR8, GIRK (G protein-gated inwardly rectifying potassium channel) thallium flux, FluoZin2; at 10 µM; stronger effect = higher value; submaximal glutamate (EC20) added with thallium
# Chain of UniProt P70579 (P70579 whole entry, looked up): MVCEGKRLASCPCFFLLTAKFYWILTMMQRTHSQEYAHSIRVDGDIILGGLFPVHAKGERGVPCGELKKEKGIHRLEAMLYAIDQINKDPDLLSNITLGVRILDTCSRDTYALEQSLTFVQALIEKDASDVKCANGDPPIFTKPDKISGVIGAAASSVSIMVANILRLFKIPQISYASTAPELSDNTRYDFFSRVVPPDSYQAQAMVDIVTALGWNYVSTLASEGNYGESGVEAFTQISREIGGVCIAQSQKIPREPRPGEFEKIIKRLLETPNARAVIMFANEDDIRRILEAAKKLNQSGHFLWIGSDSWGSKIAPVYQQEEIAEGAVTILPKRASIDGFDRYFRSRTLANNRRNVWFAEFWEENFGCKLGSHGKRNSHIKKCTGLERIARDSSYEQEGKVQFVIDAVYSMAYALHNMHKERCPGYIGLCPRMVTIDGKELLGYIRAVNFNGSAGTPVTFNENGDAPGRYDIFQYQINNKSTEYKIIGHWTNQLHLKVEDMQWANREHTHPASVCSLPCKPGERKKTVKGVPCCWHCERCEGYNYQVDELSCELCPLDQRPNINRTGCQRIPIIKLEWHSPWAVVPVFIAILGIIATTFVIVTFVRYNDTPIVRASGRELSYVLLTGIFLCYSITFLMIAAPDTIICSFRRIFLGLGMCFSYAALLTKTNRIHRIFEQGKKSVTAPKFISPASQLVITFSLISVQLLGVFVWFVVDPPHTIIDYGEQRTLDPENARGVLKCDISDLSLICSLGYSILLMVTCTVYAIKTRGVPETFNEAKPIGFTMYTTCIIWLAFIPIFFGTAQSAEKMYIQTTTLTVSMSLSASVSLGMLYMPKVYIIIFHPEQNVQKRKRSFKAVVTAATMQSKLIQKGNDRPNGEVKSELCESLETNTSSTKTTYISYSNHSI
row,SMILES,z-score
1,Cc1cccc(C)c1OCC(O)Cn1ccnc1C (stereo unspecified),-0.38
2,Cc1ccc(-n2c(Cn3cnc4ccccc43)nnc2SCC(=O)O)cc1,-0.0769
3,COc1ccc(S(=O)(=O)NCCCN2CCOCC2)c2ccccc12,0.707
4,CC1(C)CC(=O)c2c(O)cc(OCc3ccc(Br)cc3)cc2O1,0.0488
5,Cc1ccc2nc(NC(=O)C3CCN(S(=O)(=O)c4ccc5c(c4)oc(=O)n5C)CC3)sc2c1,0.227
6,Cc1ccc(-c2noc(CN3CCCCC3)n2)cc1,-0.376
7,Cc1ccc(NC(=O)/C(C#N)=C/c2cccs2)c(C)c1,0.0553
8,CC(=O)Nc1ccccc1OC(=O)N1CCOCC1,-0.392
9,Cc1nn2c(CN(C(=O)c3ccco3)c3ccccc3)nnc2c2ccccc12,0.0668
10,Cc1ccc(NC(=S)NCCc2c[nH]c3ccccc23)cc1,-0.0822
11,O=C(COC(=O)CCSc1ccc(Cl)cc1)NCc1ccc(Cl)cc1,0.261
12,Cn1c(COc2ccccc2)nnc1SCc1cc(=O)[nH]c2ccccc12,0.653
13,COc1cccc(N2CCN(CC(=O)NCc3cccs3)CC2)c1,-0.23
14,O=C(Nc1ccccc1-c1nnc(SCc2ccccc2)o1)c1ccccc1,-0.364
15,Cc1ccc(-c2cc(C(=O)N3CCCc4ccccc43)c3ccccc3n2)cc1,-0.22
16,CNC(=O)C1CC(=O)N(c2ccc(C)cc2)C1 (stereo unspecified),0.338
17,CCCCOc1ccc(C(=O)NNC(=S)NC(=O)CC)cc1,active: 4.28
18,COc1cccc(Nc2ccc(Nc3cccc(OC)c3)nn2)c1,0.309
19,Cc1cc2ncn(N)c2cc1C,-0.221
20,FC(F)(F)c1nnc(-c2ccccc2)nc1Sc1ccccc1,0.0829
21,CCCc1nc2ccc(NC(=O)c3ccco3)cc2c(=O)n1Cc1ccccc1Cl,0.0821
22,Cn1c(=NC(=O)CSCC(=O)N2CCCC2)sc2ccccc21,1.64
23,Cc1ccc(/C=N/NC(=O)c2csc(C)c2)o1,-0.19

row,SMILES,z-score
1,C/C(=N/Nc1ccc(F)cc1)c1ccc(Cl)s1,0.13
2,COC(=O)c1sccc1-c1ccc(C(=O)Nc2cccc(Cl)c2)o1,-0.119
3,COC(=O)c1c(NC(=O)c2cccnc2)sc(C)c1C,0.175
4,Cc1cc(=O)oc2cc(OCC(=O)NCc3ccco3)ccc12,0.949
5,CCOC(=O)C1CCN(C(=O)c2ccc(SC)cc2OC)CC1,-0.371
6,Cc1cccn2c(=O)c3cc(C(=O)NCc4cccnc4)c(=N)n(C(C)C)c3nc12,-0.268
7,Cc1ccc(C)c(C(=O)CSc2n[nH]c(-c3ccncc3)n2)c1,0.166
8,Cc1ccc(-n2c(CSc3nc(C)cc(C)n3)nnc2SCC(=O)NCc2ccco2)cc1,active: 8.78
9,CCn1cc([N+](=O)[O-])c(C(=O)Nc2ccc(Br)cn2)n1,-0.795
10,COc1ccc(-n2c(=O)c3ccccc3n(CC(=O)Nc3cc(C)on3)c2=O)cc1OC,-0.958
11,CC(=O)N1CCc2cc(S(=O)(=O)Nc3cccc(C(F)(F)F)c3)ccc21,-0.237
12,CC(C)n1c(NCc2nc3ccccc3n2C)nc2ccccc21,-1.2
13,COc1ccc(NC(=O)CCN2CCC(C)CC2)cc1,0.105
14,Cc1cc(C)n(-c2nc(N(C)C)nc(N3CCOCC3)n2)n1,-0.234
15,N#Cc1c(-c2cccs2)cc(-c2cccnc2)nc1N,0.891
16,COC(=O)C(Cc1c[nH]c2ccccc12)NC(=O)C(C)C (stereo unspecified),-0.146
17,CCN(CC)c1ccc(NC(=O)OC)cc1,-0.117
18,O=C(CSc1nnc(Cn2c(=O)sc3ccccc32)n1-c1ccccc1)N1CCOCC1,0.0802
19,COc1nc(Nc2ccc3c(c2)OCO3)nc(OC)n1,-0.21
20,O=C1C2C(c3ccccc3)C=CC(c3ccccc3)C2C(=O)N1C1CCCCC1 (stereo unspecified),-0.89
21,Cc1ccc(S(=O)(=O)c2cnc(-c3ccccc3)nc2Oc2ccccc2)cc1,-0.308
22,O=C(Nc1ccccc1)Nc1cccc(Cl)c1,0.0364
23,COC(=O)c1cn(NC(=O)c2ccc(F)cc2)c(=O)c2ccccc12,-0.423

row,SMILES,z-score
1,Cc1ccc(-c2nsc(SCC(=O)NCc3ccc4c(c3)OCO4)n2)cc1,-0.00793
2,Cc1ccc(CN2C(=O)NC(Cc3c[nH]c4ccccc34)C2=O)cc1 (stereo unspecified),-0.269
3,COCC(=O)Nc1cc(OC)ccc1OC,0.423
4,O=[N+]([O-])c1ccc(O)c(C=Nc2ccc3nc(-c4ccccc4)[nH]c3c2)c1,-0.271
5,CC(=O)Nc1ccc(S(=O)(=O)N(CCO)Cc2ccccc2)cc1,0.159
6,COc1ccc(N=Cc2sc3ccccc3c2Cl)cc1,0.0672
7,CCS(=O)(=O)N1CCC(C(=O)NCCCN2CCCC2)CC1,-0.118
8,COc1ccc(C)cc1S(=O)(=O)N(C)CC(=O)N1CCCCCC1,-0.534
9,O=C(CSc1nc(-c2ccccc2)c(-c2ccccc2)[nH]1)N1CCN(S(=O)(=O)c2ccccc2)CC1,-0.463
10,O=[N+]([O-])c1cccc(/C=C/c2nc(C=Nc3ccc4ccccc4c3)c(O)o2)c1,-0.0456
11,Cc1ccc(SCc2cc(=O)[nH]c(Nc3nc(C)c4ccccc4n3)n2)cc1,0.834
12,CCCCOc1ccc(C(=O)NC)cc1,0.31
13,COc1ccc(/C=N/n2cnc3c([nH]c4ccc(Br)cc43)c2=O)cc1CN1CCOCC1,-0.0868
14,O=C(OCC(=O)N1CCN(C(=O)c2ccco2)CC1)c1sc2cc(F)ccc2c1Cl,-0.404
15,COc1ccc(/C=N/NC(=O)CN2CCS(=O)(=O)CC2)cc1,-0.11
16,CCOC(=O)C1=C(C)NC(SCC(=O)Nc2cc(C)on2)=C(C#N)C1c1cccs1 (stereo unspecified),-1.81
17,C/C(=N/NC(=O)c1cc(Cl)ccc1O)C12CC3CC(CC(C3)C1)C2,active: 3.19
18,COC(=O)c1ccc(CSc2nc(C)nc3c2c(=O)n(C)c(=O)n3C)o1,-0.371
19,CCOC(=O)c1ccc(NC2c3ncccc3C(=O)N2Cc2ccc(F)cc2)cc1 (stereo unspecified),-0.234
20,CC1CCc2sc(NC(=S)NC(=O)c3ccccc3)c(C#N)c2C1 (stereo unspecified),0.0703
21,CCCCCCSc1nnc(-c2cnn(-c3ccccc3)c2-n2cccc2)n1C,-1.18
22,O=C(c1cnn2c1NC(c1ccc(Br)cc1)CC2C(F)(F)F)N1CCN(C23CC4CC(CC(C4)C2)C3)CC1 (stereo unspecified),-0.105
23,Cc1cccc(S(=O)(=O)Nc2ccc(-c3cn4ccccc4n3)cc2)c1,-0.328

row,SMILES,z-score
1,Cc1cccc(NC2=Nc3ccccc3N3C2=Nc2c(c(C)nn2-c2ccccc2)C3c2ccc(O)c(O)c2)c1 (stereo unspecified),-0.0241
2,COc1cc(/C=C2\OC(=O)c3c(OC)cccc32)ccc1O,-0.195
3,CNC(=S)NNC(=O)c1cccc(C(F)(F)F)c1,1.83
4,Cc1nc(Nc2ccncc2)c2oc3ccccc3c2n1,1.38
5,Cc1occc1C(=O)Nc1ccc2c(c1)OCO2,-0.0683
6,NC(=S)N/N=C/c1coc2cc(Cl)ccc2c1=O,-0.289
7,Cc1ccc(Cc2nc(-c3ccccn3)no2)cc1,0.189
8,COCc1nc2sc(C)c(C)c2c(=O)[nH]1,0.603
9,CCOC(=O)CSc1nc2ccsc2c(=O)n1C1CCN(C(=O)OCC)CC1,-0.516
10,Cc1ccc(N2C(=O)c3n[nH]c(C)c3C2c2cccnc2)cc1 (stereo unspecified),-0.536
11,CCOC(=O)N1CCN(C(=O)c2ccccc2CCc2ccccc2)CC1,-0.513
12,COc1ccc(S(=O)(=O)Nc2nncs2)cc1,-0.189
13,O=C(Nc1ccccc1Cl)NC1(C(=O)N2CCCCC2)CCCCC1,0.141
14,Cc1ccsc1/C=N/n1c(-c2ccccn2)n[nH]c1=S,-0.121
15,COc1ccccc1OCCNC(=O)c1cccs1,-0.0498
16,Cc1ccc(CCNC(=O)C2CCCN(S(=O)(=O)c3c(C)noc3/C=C/N(C)C)C2)cc1 (stereo unspecified),-0.519
17,Cc1nnc(N(C)C(=O)Cc2ccc3c(c2)OCO3)s1,0.0151
18,Cc1ccc(S(=O)(=O)N2CCN(c3nc(C(C)C)c4c(c3C#N)CC(C)(C)OC4)CC2)cc1,-0.438
19,COc1ccc(CN=C2NC(=O)CC(C(=O)Nc3ccc(F)cc3)S2)cc1 (stereo unspecified),-0.106
20,COc1ccc(NC(=O)CN(c2cc(C)cc(C)c2)S(=O)(=O)c2c(C)n[nH]c2C)cc1,-0.532
21,O=C(NNc1cccc(Cl)n1)Nc1cccc(Cl)c1,0.158
22,COC(=O)c1ccc(Oc2nc(NC(C)C)nc(SC)n2)cc1,-0.809
23,COc1ccc2[nH]cc(C(=O)CN3CCN(C/C=C/c4ccccc4)CC3)c2c1,0.259

row,SMILES,z-score
1,c1ccc2c(Nc3nnc(-c4ccncc4)s3)cccc2c1,active: 4.07
2,CC(=O)c1c(C)[nH]c(C(=O)COc2ccc(C#N)cc2)c1C,-0.0197
3,CCOc1ccccc1NC(C)C(=O)Nc1cc(C(F)(F)F)ccc1N1CCOCC1 (stereo unspecified),-0.267
4,Cc1c(NC(=O)C2CCCN2S(=O)(=O)c2ccc(Cl)cc2)c(=O)n(-c2ccccc2)n1C (stereo unspecified),-0.579
5,COc1cc(C)ccc1OCCOCCOc1ccccc1[N+](=O)[O-],-0.274
6,NS(=O)(=O)c1ccc(CCNC(=S)Nc2ccccc2)cc1,-0.217
7,CC1(C)CC(=O)C2=C(C1)N(CCN1CCOCC1)C1=C(C(=O)CC(C)(C)C1)C2c1cccc(Cl)c1,-0.714
8,COc1ccc(S(=O)(=O)N2CCC(NC(=O)OCc3c(Cl)cccc3Cl)CC2)cc1,-0.28
9,Cc1ccc(S(=O)(=O)N(C)CC(O)Cn2c3ccccc3c3ccccc32)cc1 (stereo unspecified),-0.232
10,Cc1cc(C)c[n+](-c2nc3ccccc3nc2[N-]S(=O)(=O)c2cccs2)c1,-0.407
11,Cc1ccc(S(=O)(=O)/N=C2/NC(=O)/C(=C/c3cccnc3)S2)cc1,0.0604
12,c1ccc2cc(CN3CCOCC3)ccc2c1,0.71
13,Cn1c(=O)c2c(ncn2CC(=O)OCC(=O)NC2CCCc3ccccc32)n(C)c1=O (stereo unspecified),-0.0161
14,CCOC(=O)c1cnc(C(C)(C)C)[nH]c1=O,-0.298
15,CC(C)C(=O)OCC(=O)Nc1ccc2c(c1)CCC2,-0.0865
16,Cc1ccc(-c2cc(N)n(-c3ccc(C)cc3)n2)cc1,-0.731
17,Nc1ccc(O)c(-c2nc3ccccc3s2)c1,0.263
18,CC1=CC(=Nc2c(C)n(C)n(-c3ccccc3)c2=O)C=C(C)C1=O,0.433
19,CCN(CC)S(=O)(=O)c1cccc(C(=O)N2CC(O)CC2C(=O)O)c1 (stereo unspecified),0.56
